Among all 310,000 compounds or so, about 2,200 (0.71%) showed an effect of 50% or more. Effects have a minus sign here. The list shows a part of the results.
The compounds below were run against human ether-à-go-go-related gene (hERG) potassium channel (human, UniProt Q12809) (assay: primary screen, population patch clamp on CHO cells stably expressing hERG).
Sequence of human ether-à-go-go-related gene (hERG) potassium channel (Q12809 whole entry, looked up): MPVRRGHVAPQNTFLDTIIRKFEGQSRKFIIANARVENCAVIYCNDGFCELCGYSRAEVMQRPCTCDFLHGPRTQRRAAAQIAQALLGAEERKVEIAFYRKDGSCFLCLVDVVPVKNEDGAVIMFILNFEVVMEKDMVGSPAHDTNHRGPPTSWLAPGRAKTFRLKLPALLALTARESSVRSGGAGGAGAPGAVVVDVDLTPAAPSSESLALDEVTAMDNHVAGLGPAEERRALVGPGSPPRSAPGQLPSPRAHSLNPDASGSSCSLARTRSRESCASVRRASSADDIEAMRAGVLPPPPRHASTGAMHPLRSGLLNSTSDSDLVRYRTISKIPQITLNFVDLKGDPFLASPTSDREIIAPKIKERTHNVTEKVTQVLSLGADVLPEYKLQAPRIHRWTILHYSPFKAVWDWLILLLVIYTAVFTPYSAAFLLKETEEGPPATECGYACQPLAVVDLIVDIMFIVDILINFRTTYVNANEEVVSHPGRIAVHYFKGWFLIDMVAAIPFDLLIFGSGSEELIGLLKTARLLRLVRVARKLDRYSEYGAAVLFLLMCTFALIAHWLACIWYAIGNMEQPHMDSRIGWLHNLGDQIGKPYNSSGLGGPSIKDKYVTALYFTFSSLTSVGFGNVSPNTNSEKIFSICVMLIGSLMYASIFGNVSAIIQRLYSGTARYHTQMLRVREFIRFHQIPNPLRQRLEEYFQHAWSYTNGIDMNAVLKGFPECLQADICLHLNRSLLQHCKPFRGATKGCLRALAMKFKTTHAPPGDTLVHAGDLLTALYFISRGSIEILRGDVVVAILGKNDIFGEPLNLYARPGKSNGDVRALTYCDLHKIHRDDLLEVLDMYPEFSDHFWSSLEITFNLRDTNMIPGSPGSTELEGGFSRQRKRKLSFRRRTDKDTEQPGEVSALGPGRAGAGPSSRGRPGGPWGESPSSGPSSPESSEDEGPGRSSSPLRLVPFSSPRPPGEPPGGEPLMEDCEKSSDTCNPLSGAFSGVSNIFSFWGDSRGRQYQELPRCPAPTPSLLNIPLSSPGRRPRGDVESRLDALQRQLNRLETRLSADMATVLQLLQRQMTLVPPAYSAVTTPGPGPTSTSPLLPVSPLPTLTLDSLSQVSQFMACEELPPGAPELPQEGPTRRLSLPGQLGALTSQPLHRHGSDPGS

| Structure (SMILES) | hERG current change (%, negative = inhibition) at 1uM [%] |
| --- | --- |
| O=C(NN1C(=O)c2ccccc2NC12CCCCC2)c1ccccc1 | 1.07 |
| COc1ccc(N(CC(=O)Nc2cc(C)ccc2C)S(=O)(=O)c2c(C)nn(C)c2C)cc1 | 7.7 |
| C=CCNS(=O)(=O)c1ccc(OC)c(C)c1 | 14.2 |
| COc1cc(/C=N/NS(=O)(=O)c2ccc(Br)cc2)ccc1O | 17.5 |
| Cc1ccc(NCc2n[nH]c(=S)n2-c2ccccc2)c(C)c1 | 2.53 |
| COc1ccc(-c2ocnc2C(=O)Nc2ccc3c(c2)CCC3)cc1 | 12.7 |
| O=C(N/N=C/c1ccc(O)cc1O)/C(=C/c1ccccc1)CCO | 2.62 |
| CC(=O)N/C(=C\c1ccc(F)cc1)C(=O)NC(C(=O)O)C(C)C (stereo not shown) | 8.16 |
| Cc1ccc2c(c1)-c1c(cnn1CC(=O)N(Cc1ccco1)C1CCCCC1)CO2 | 2.98 |
| COC(=O)c1cc(S(=O)(=O)N2CCCCC2C)c[nH]1 (stereo not shown) | 16.8 |
| COc1ccc(CCN(C)CC(O)COC(c2ccc(F)cc2)c2ccc(F)cc2)cc1OC (stereo not shown) | -79.9 |
| Cn1c(=O)[nH]c(=O)c2c1nc(SCC(=O)O)n2CCc1ccccc1 | 20.2 |
| CCOC(=O)C1CCN(C(=O)c2cc3cc4cc(OC)ccc4nc3o2)CC1 | 5.14 |
| COc1ccccc1CC(NC(C)=O)C(=O)N1CCN(C(=O)Nc2ccccc2Cl)CC1 (stereo not shown) | 14.5 |
| COC(=O)Nc1ccc(S(=O)(=O)N2CCN(c3ccc(F)cc3)CC2)cc1 | 7 |
| Cc1ccc(SCC(=O)NC(=O)c2ccc(S(=O)(=O)N(C)C)cc2)cc1C | -2.42 |
| N#Cc1nc(COc2ccc(F)cc2)oc1NCCCn1ccnc1 | -42.2 |
| O=C(c1ccc(NS(=O)(=O)c2ccc3[nH]c(=O)[nH]c3c2)cc1)N1CCCC(C(F)(F)F)C1 (stereo not shown) | 11.5 |
| COc1ccc(S(=O)(=O)NC2CCSc3ccccc32)cc1OC (stereo not shown) | 8.26 |
| COc1ccccc1N(CC(=O)N/N=C(\C)c1ccccc1O)S(=O)(=O)c1ccc(C)cc1 | 9.21 |
| Cc1ccc(Nc2nc(C)c(CCC(C)C)c(=O)[nH]2)cc1 | 8.07 |
| CCOC(=O)C1CCCN(C(=S)Nc2cccc(Cl)c2)C1 (stereo not shown) | 8.57 |

| Structure (SMILES) | hERG current change (%, negative = inhibition) at 1uM [%] |
| --- | --- |
| CC(Cc1cccc(C(F)(F)F)c1)NCCOC(=O)c1ccccc1.Cl (stereo not shown) | 3.42 |
| Cc1ccccc1C(=O)Oc1ccc(Sc2ccc(O)cc2)cc1 | 8.93 |
| CCc1cccc(CC)c1NC(=S)NCC(c1cccnc1)N1CCOCC1 (stereo not shown) | 3.5 |
| O=C(COc1cccc(F)c1)Nc1nc(-c2cccnc2)cs1 | 14 |
| COc1ccc(NC(=O)Nc2ccc(Cc3ccncc3)cc2)c(OC)c1 | 4.99 |
| C#CCOc1ccc(C2C3=C(CC(C)(C)CC3=O)N(CC(=O)O)C3=C2C(=O)CC(C)(C)C3)cc1OC | 18.7 |
| Cc1cc(Cl)ccc1OCCCC(=O)N1CCOCC1 | -7.13 |
| COc1ccc(CCC(C)N2CCOCC2)cc1 (stereo not shown) | 5.6 |
| CC(=Nc1ccc(F)cc1)c1c(O)n(C)c(=O)[nH]c1=O | 17 |
| Cc1ccc(C)c(S(=O)(=O)N2CCNCC2)c1 | 7.02 |
| O=C(O)C1CC=CCC1C(=O)Nc1ccc(S(=O)(=O)N2CCCc3ccccc32)cc1 (stereo not shown) | 6.18 |
| O=C(COc1ccccc1)N1CCN(c2ccc([N+](=O)[O-])c(N3CCCCC3)c2)CC1 | 10.7 |
| CCOC(=O)c1c(C)[nH]c(C)c1-c1ccccc1OC | 5.44 |
| CCOC(=O)N1CCC(NS(=O)(=O)c2ccc(C#N)cc2)CC1 | 10.2 |
| Cc1ccc(NC(=O)CCC(=O)c2ccc(Br)cc2)cc1 | 10.9 |
| CC(C)(C)NS(=O)(=O)c1cccc(S(=O)(=O)c2cccc(S(=O)(=O)NC(C)(C)C)c2)c1 | -8.48 |
| COc1cc(CN(C)Cc2cccc3ccccc23)cc([N+](=O)[O-])c1O | 12.5 |
| O=C(COc1cccc(Br)c1)N/N=C1\CCSC1 | 6.12 |
| Nn1c(-c2ccccc2)nc2ccccc2c1=O | 7.79 |
| Cc1ccc(OCC(=O)Nn2cnc3ccccc32)cc1 | 2.55 |
| O=C(Cc1csc(N2CCOCC2)n1)N/N=C/c1ccc(F)cc1 | 3.97 |
| Cn1nc(CC(=O)N2CCN(c3ccccc3)CC2)c2ccccc2c1=O | -5.42 |

| Structure (SMILES) | hERG current change (%, negative = inhibition) at 1uM [%] |
| --- | --- |
| CCn1c(SCC(=O)c2cc(OC)ccc2OC)nnc1-c1ccncc1 | 7 |
| COc1cccc(C(=O)CC(=O)C(=O)Nc2cc(Cl)c(OC)cc2OC)c1 | 11.7 |
| CN(C)c1ccc(-c2noc(-c3ccccc3O)n2)cc1 | 3.12 |
| C[C@H](NC(N)=O)C(=O)OCC(=O)Nc1ccc(OC(F)F)cc1 | -1.05 |
| O=C(CCn1nnc2ccccc21)NNC(=O)C1CCCCC1 | 18.3 |
| CCn1c(SCc2nc(-c3ccc(OC)c(OC)c3)no2)nnc1-c1cccs1 | -1.52 |
| O=C(c1cccc(S(=O)(=O)N2CCOCC2)c1)N1CCN(S(=O)(=O)c2cccs2)CC1 | 9.64 |
| O=C(OCC(=O)N1CCOCC1)c1cnc(Cl)c(Cl)c1 | -0.0536 |
| Cc1onc(-c2ccccc2Cl)c1C(=O)OCc1cnc(Cl)s1 | 15.1 |
| NC(=S)N/N=C/c1cccc(O)c1O | 22.9 |
| COC(=O)c1sc(SC)c2c1CC(C)(C)C/C2=N/O | 13.4 |
| COC(=O)Cn1c2c(c3cc(C)ccc31)CCCC2 | 6.1 |
| CC(=O)C1=C(C)NC(SCC(N)=O)=C(C#N)C1c1sccc1C (stereo not shown) | 12.4 |
| CCCCn1c(N)c(N(CC)C(=O)c2cccc(S(=O)(=O)N3CCCc4ccccc43)c2)c(=O)[nH]c1=O | 7.74 |
| CCOc1cc(/C=C2/C(=O)N(c3ccccc3)N=C2C)ccc1OC(=O)c1cccs1 | 7.49 |
| Cc1cc(CN(C)C(=O)CC2C(=O)NCCN2CC(c2ccccc2)c2ccccc2)on1 (stereo not shown) | 10.5 |
| O=C(CSc1nncs1)N1CCN(C(=O)c2ccco2)CC1 | 10 |
| CC(=O)Nc1ccc(NC(=O)c2ccc(Cl)nc2)cc1 | 6.35 |
| Cc1ccc(N2CC(C(=O)Nc3c4c(nn3C(C)(C)C)CS(=O)(=O)C4)CC2=O)cc1C (stereo not shown) | 2.17 |
| CC(NC(=O)CSc1ncnc2nc[nH]c12)c1ccccc1 (stereo not shown) | 15.7 |
| Cc1oc(C(C)(C)C)cc1C(=O)N1CCN(c2ccc(C(F)(F)F)cn2)CC1 | 9.49 |
| COc1ccc(/C=C/C(=O)c2cc(Br)ccc2OC(=O)c2ccco2)cc1OC | 12.6 |

| Structure (SMILES) | hERG current change (%, negative = inhibition) at 1uM [%] |
| --- | --- |
| CN(C)C(=O)COC(=O)/C=C/c1ccccc1[N+](=O)[O-] | 20.6 |
| COc1ccc(CCNC(=O)c2cccc(S(=O)(=O)N3CCCCC3)c2)cc1 | -5.48 |
| CC(=O)OC(C(=O)NCS(=O)(=O)c1ccc(C)cc1)c1cccnc1 (stereo not shown) | 14.3 |
| N#Cc1c(N)nc2c(c1-c1ccc(F)cc1)c(=O)nc1sccn12 | 21.9 |
| COc1ccc(S(=O)(=O)N2CCC(C(=O)NCCC(=O)NCc3ccccc3OC)CC2)cc1 | 9.8 |
| CC(C)Oc1cccc(C(=O)Nc2ccc(NC(=O)c3ccco3)cc2)c1 | 13.5 |
| Cc1ccccc1NC(=S)N1CCCN(Cc2ccc(F)cc2)C1 | 8.61 |
| O=C(c1cccc(C(=O)N2CCN(c3ccc(F)cc3)CC2)c1)N1CCN(c2ccc(F)cc2)CC1 | -22.7 |
| O=C(Nn1c(O)c(C=C2N=c3ccccc3=N2)sc1=S)c1ccc(Cl)cc1 | 7.35 |
| O=C(O)c1cccc(S(=O)(=O)Nc2cccc3ccccc23)c1 | 7.52 |
| COc1cc2nc(CSc3nc(-c4ccc(F)cc4)cs3)[nH]c(=O)c2cc1OC | 12.9 |
| CC(C)(C)P(=O)(N1CCOCC1)N1CCOCC1 | 8.69 |
| CN(C)c1nc(-c2cccnc2)nc(-c2ccccc2)c1C#N | 9.9 |
| CCOc1ccc(CN(C(=O)c2cc3ccccc3oc2=O)C2CCS(=O)(=O)C2)cc1 (stereo not shown) | 0.919 |
| OCCC1CN(Cc2ccon2)CCN1Cc1ccc(F)c(F)c1 (stereo not shown) | 3.9 |
| COc1ccccc1NC(=O)C(NC(=O)c1ccc(C)cc1)c1ccccc1 (stereo not shown) | 15.4 |
| CCOc1cccc(N(C(=O)Cc2cccs2)C(C(=O)NC2CCCCC2)c2cccn2C)c1 (stereo not shown) | 10.6 |
| CC(=O)N1CCN(C(=S)NC(=O)c2ccc(S(=O)(=O)N3CCOCC3)cc2)CC1 | 13.2 |
| Cc1ccc(Sc2ncccc2[N+](=O)[O-])cc1 | 5.68 |
| COc1ccc(N(C(=O)c2cccnc2)S(=O)(=O)c2ccc(F)cc2)cc1 | 0.97 |
| O=C(CN(Cc1ccco1)C(=O)CNS(=O)(=O)c1ccc(Cl)cc1)NCc1ccco1 | -22.6 |
| Cn1cnc2cc(NS(=O)(=O)c3ccc(Br)cc3)ccc21 | 11.1 |
